# Assay results published in PubChem BioAssay AID2107 (National Center for Advancing Translational Sciences (NCATS), 2009).
# Screen size: about 240,000 compounds; about 20 (0.008%) were called active. Inconclusive results, whose numbers are uncertain, are shown with a selection of clear calls. Calls follow the shape of the dose curve; as a rule, active = well fitted inhibition curve with a large enough effect; inconclusive = small, poorly fitted or top-dose-only effect, or effect the other way; inactive = flat fitted curve, though single readings scatter. Potencies of inconclusive entries are left out as doubtful fits.
# Molecular target: Alpha-galactosidase A (Homo sapiens) (UniProt P06280)
# Sequence of UniProt P06280 (P06280 whole entry, looked up): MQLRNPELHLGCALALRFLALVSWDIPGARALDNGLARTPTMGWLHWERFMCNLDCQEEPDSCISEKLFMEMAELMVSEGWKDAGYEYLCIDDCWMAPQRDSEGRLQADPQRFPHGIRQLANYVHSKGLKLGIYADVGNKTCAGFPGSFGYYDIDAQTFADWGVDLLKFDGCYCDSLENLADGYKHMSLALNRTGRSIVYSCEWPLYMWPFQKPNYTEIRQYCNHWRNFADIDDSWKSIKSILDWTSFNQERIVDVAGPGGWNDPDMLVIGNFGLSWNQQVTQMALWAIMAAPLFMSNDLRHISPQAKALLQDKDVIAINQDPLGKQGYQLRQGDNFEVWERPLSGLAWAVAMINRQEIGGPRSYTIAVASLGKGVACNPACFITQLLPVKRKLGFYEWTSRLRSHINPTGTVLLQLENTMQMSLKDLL
# Experiment: qHTS Assay for Inhibitors and Activators of Human alpha-Galactosidase From Spleen Homogenate;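 as to activity change, negative = inhibition: 0% = enzyme with vehicle and -100% = no enzyme basal signal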
# Settings: 4MU-alpha-Gal fluorescence, 40 min; activity change, negative = inhibition: at 80 µM (top of the series)
# How it was run: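 qHTS titration in buffer at pH 5.0. Alpha-galactosidase activity in spleen homogenate was measured via 4-methylumbelliferone release from 1 mM fluorogenic substrate after 40 min at 37C and a pH 10 stop. AC50 came from Hill fits of control-normalized data.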
# Potency is read from the fitted curve at half-maximal effect; tags tell the direction and shape of the fitted curve.
Compound,Potency,"activity change, negative = inhibition"
CCOC(=O)CNC(=S)N1CCn2c(nc3ccccc32)C1,inactive,–
CC(=O)c1ccc(-c2cccs2)s1,"inconclusive [activator, partial curve]",–
COCc1cc(=O)[nH]c2cc(NC(=O)C(F)(F)F)c(C)cc12,"inconclusive [activator, partial curve]",–
C=CCNC(=O)/C(C#N)=C/c1c(N2CC(C)OC(C)C2)nc2ccccn2c1=O (configuration not stated),"inconclusive [activator, partial curve]",–
CCN(CC)c1ccc(N=Cc2ccc([N+](=O)[O-])o2)cc1,inactive,–
CSc1nc(NCCCO)c2c3c(sc2n1)CN(C)CC3,"inconclusive [activator, partial curve]",–
CCOC(=O)CNC(=O)c1cn(C)c(=O)c2cc(OC)c(OC)cc12,"inconclusive [inhibitor, single point]",–
Cc1cc(C)c(C)c(S(=O)(=O)NCc2ccc(C(=O)N3CCCCC3)cc2)c1C,"inconclusive [inhibitor, single point]",–
CC(C)Nc1nc(-c2ccccn2)nc(-c2ccccc2)c1C#N,inactive,–
Cc1c(-c2ccccc2)c(P(=O)(N2CCOCC2)N2CCOCC2)c2ccccn12,"inconclusive [activator, single point]",–
Cc1c(Br)c([N+](=O)[O-])nn1C(C)C(=O)N1CCCc2ccccc21 (configuration not stated),"inconclusive [inhibitor, single point]",–
O=C(Nc1ccc(N2CCCC2=O)cc1)c1cccc(F)c1,"inconclusive [inhibitor, single point]",–
Cc1ccc(C(=O)C(NC(=O)c2ccco2)N2CCOCC2)cc1 (configuration not stated),"inconclusive [inhibitor, single point]",–
Cn1ccnc1SC(=O)N1c2ccccc2Sc2ccccc21,"inconclusive [inhibitor, single point]",–
CC(=O)Nc1ccc(S(=O)(=O)N(C)CC(=O)NC2=NCCS2)cc1,"inconclusive [inhibitor, partial curve]",–
CC(=O)N1CCN(CCN=CC2=C(O)CC(C)(C)CC2=O)CC1,"inconclusive [inhibitor, single point]",–
NC(=O)c1ccc(N2CCN(c3ccc(O)cc3)CC2)c([N+](=O)[O-])c1,inactive,–
CCNc1nc2nc3ccc(C)cn3c(=O)c2cc1C(=O)NCC1CCCO1 (configuration not stated),"inconclusive [activator, full curve]",–
CCCCOc1ccccc1C1C(C(=O)OC)=CN(CC)C=C1C(=O)OC,"inconclusive [activator, single point]",–
COc1ccc(C(=O)N2CCCCC2)cc1S(=O)(=O)Nc1ccccc1,"inconclusive [activator, single point]",–
Cn1c(NCCCO)nc2c(c1=O)C1(CCCCC1)Cc1ccccc1-2,inactive,–
CC(=O)[C@]1(O)CCC2C3CC(C)C4=CC(=O)C=CC4(C)[C@@]3(F)C(O)C[C@]21C (some centres not stated),inactive,–
COc1ccc(S(=O)(=O)Nc2ccc(F)cc2)c(C)c1C,"inconclusive [inhibitor, full curve, poor fit]",–
CC(C)(C)NC(=O)NC(=O)COC(=O)c1ccco1,"inconclusive [inhibitor, partial curve]",–

Compound,Potency,"activity change, negative = inhibition"
CCOC(=O)Cn1c(=O)sc2cccc(Cl)c21,inactive,–
CCOC(=O)N1CCN(C(=O)c2ccc3nc4ccsc4c(=O)n3c2)CC1,"inconclusive [activator, single point]",–
COc1cccc(C(=O)/C=C/c2ccc(OCC#N)c(OC)c2)c1,inactive,–
CCNc1ncc2nc(-c3cccc(C#N)c3)c(=O)n(C)c2n1,"inconclusive [activator, full curve, poor fit]",–
CCCCCCCCCCCCCCCCCCCCCCCCCCCCCC,inactive,–
Cc1cc2c(c(=O)o1)C(C13C=CC(CC1)C3)C(C#N)=C(N)O2 (configuration not stated),"inconclusive [inhibitor, partial curve]",–
Cc1nc(NC(=O)/C=C/c2ccccc2)sc1C(=O)N1CCCCC1,inactive,–
O=C(CNC(=O)c1ccccc1)OCc1cccc(Br)c1,"inconclusive [activator, single point]",–
O=C(CN1CCCCCC1)Nc1ccc(Oc2ccccc2)cc1,"inconclusive [inhibitor, full curve, poor fit]",–
CC(C)C(=O)Nc1c2c(nc3ccccc13)N(C)CC2,"inconclusive [activator, partial curve]",–
CN(C)C=Nc1ncc2c([nH]c3ccccc32)c1C#N,"inconclusive [inhibitor, single point]",–
CN(C)S(=O)(=O)Nc1ccc(Oc2ccccc2)cc1,inactive,–
CC(C)(C)NC(=O)CN1CCN(C(=O)CCl)CC1,inactive,–
CNC(=O)c1cc2c(=O)n3cccc(C)c3nc2n(C(C)C)c1=N,"inconclusive [activator, single point]",–
CN(C(=O)CSc1nc2cc(C(=O)O)ccc2c(=O)n1Cc1ccccc1)C1CCS(=O)(=O)C1 (configuration not stated),inactive,–
C=CCn1c(=O)c(C#N)cc2c(=O)n3ccccc3nc21,"inconclusive [activator, partial curve]",–
COc1ccc(-c2cc(-c3cccs3)nc(OC)c2C#N)cc1OC,"inconclusive [activator, single point]",–
NS(=O)(=O)c1ccc(CCNc2cc(=O)n(Cc3ccc(F)cc3)c(=O)[nH]2)cc1,"inconclusive [inhibitor, single point]",–
O=c1[nH]c2ccccc2nc1/C=C(\O)C1CC1,"inconclusive [inhibitor, single point]",–
CN(C)Cc1ccccc1-c1cncnc1NC1CC1,inactive,–
CC(=O)Oc1cc(OC(C)=O)c2c(C)cc(=O)oc2c1,"inconclusive [activator, partial curve]",–
C[C@H]1Cc2c(COc3ccccc3)nc3c(c2CO1)CN(C(=O)C1CCCCC1)CC3,–,inactive: -5.88% [at 17.5 µM]
CC1CCc2c(nc3ncnn3c2N2CCN(c3ccccc3F)CC2)C1 (configuration not stated),"inconclusive [inhibitor, partial curve]",–
O=C(CC1Sc2ncnn2C1=O)Nc1ccc(Cl)cc1 (configuration not stated),inactive,–

Compound,Potency,"activity change, negative = inhibition"
Cc1c(-c2ccccc2)oc2c(C(=O)OCC(=O)Nc3cccc(F)c3)cccc2c1=O,"inconclusive [inhibitor, single point]",–
O=S(=O)(Nc1ccc(-c2nc3cccnc3s2)cc1)c1cc(F)ccc1F,"inconclusive [activator, partial curve]",–
O=C1/C(=C/c2ccccc2)Nc2ccccc21,inactive,–
COC(=O)C1C[C@@H]2C3=C(C(=O)[C@@](C)(NC(=O)c4ccccc4)C3[C@H](C(=O)OC)C1)[C@H](C)n1c(=O)n(-c3ccccc3)c(=O)n12 (some centres not stated),inactive,–
CN(C)c1ncc2nc(-c3ccccc3)c(=O)n(C)c2n1,"inconclusive [activator, single point]",–
COc1cc(C(CCN2CCOCC2)c2c(OC)cc(OC)c3c2OC(=O)CC3c2ccc(N(C)C)cc2)cc(OC)c1OC (configuration not stated),inactive,–
COCCCNC(=O)c1c(N)n(-c2cccc(S(N)(=O)=O)c2)c2nc3ccccc3nc12,"inconclusive [activator, partial curve]",–
CC(C)(C)c1cc[n+](-c2[nH]c(=O)sc2/C=N/NC([S-])=Nc2ccccc2)cc1,inactive,–
COC(=O)c1ccc(OC(=O)c2nn(C)cc2Cl)c(OC)c1,"inconclusive [inhibitor, partial curve]",–
CCn1ccnc1CN(C)Cc1cn(-c2ccccc2)nc1-c1ccc(OC)cc1F,inactive,–
O=c1oc2cc(O)ccc2cc1-c1ccc2c(c1)OCCO2,"inconclusive [activator, partial curve]",–
COc1ccc(S(=O)(=O)N2CCN(c3ccc(C)cc3C)CC2)cc1OC,inactive,–
O=C(c1ccccc1)c1ncc(C(F)(F)F)cc1Cl,"inconclusive [activator, single point]",–
CCCCc1cc(=O)oc2c(CN(C)C)c(O)ccc12,"inconclusive [activator, partial curve]",–
CCOC(=O)c1cc(C)[nH]c(=O)c1C#N,"inconclusive [activator, single point]",–
COc1ccccc1N1CCN(C(=O)CN(c2ccccc2OC)S(=O)(=O)c2ccccc2)CC1,inactive,–
COc1ccc(C(=O)Nc2nnc(-c3ccco3)s2)cc1,inactive,–
O=C(O)c1cc2c(ccc3ccccc32)oc1=O,"inconclusive [activator, partial curve]",–
Oc1ccccc1/C=N/Nc1ccnc(SCc2ccccc2)n1,"inconclusive [inhibitor, single point]",–
O=C(NCC1CCCO1)c1ccc(C(=O)NCC2CCCO2)cc1 (configuration not stated),inactive,–
COc1ccccc1CNC(=O)CSc1ccc(-c2cccs2)nn1,"inconclusive [inhibitor, single point]",–
CCNc1ncc2ncc(=O)n(Cc3cccc(OC)c3)c2n1,"inconclusive [activator, single point]",–
N#Cc1c(-c2cccnc2)c2c([nH]c1=O)-c1ccccc1OC2,"inconclusive [activator, partial curve]",–
COc1ccccc1S(=O)(=O)n1cc(Cc2ccccc2)c(N)n1,"inconclusive [inhibitor, single point]",–
